This is one part of the list. One pool of 16,384 single-stranded DNAs met each Rep nickase domain in vitro for 1 h at 37 °C with 3 µM enzyme; only the middle of the 90-letter strands is printed. A value is the log2 ratio of uncut reads to the pool without enzyme; uncut sequences lie near 0, cut ones below; no hit call is given. Because reads are shares of a total, they shift together; uncut strands gain when others are lost, and binding without cutting may add a little.
System: T1, Rep nickase domain of tomato golden mosaic virus
T1 sequence (protein, residues 1-124, tag omitted): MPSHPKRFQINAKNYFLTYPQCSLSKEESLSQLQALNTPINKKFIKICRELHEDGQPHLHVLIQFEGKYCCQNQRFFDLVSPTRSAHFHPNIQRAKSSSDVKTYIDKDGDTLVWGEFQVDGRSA
Experiment: uncleaved DNA left, log2 of reads against the no-enzyme library (log2 ratio); higher = less cleavage (more negative = more Rep cleavage of the k-mer); sequences stand for … in CTCGTCCG…ACCGGAGA
Method: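 A pool of 90-nt single-stranded DNAs with seven random bases just before the constant AC of the nick site (name = the seven bases) was cut by 3 µM recombinant His6-SUMO-tagged Rep nickase domain (300 nM DNA, 50 mM HEPES pH 8.0, 50 mM NaCl, 1 mM MnCl2, 1 h, 37 °C, three replicates). Uncut DNA was amplified and sequenced.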

Sequence	uncleaved DNA left (log2)
TTACTAG	-0.199
ACTTACA	-0.232
TATCTAA	-0.0198
CCCTCTG	-0.131
CGGGCCT	-0.0336
TGAAGTG	-0.0347
AGGACGT	0.0643
GTCTACG	0.106
CACACCT	-0.17
CGCTGCT	-0.179
GGCCCAG	0.0763
GCCGTTT	-0.0306
TTAACGA	0.165
GGACGAG	0.136
TCTATTA	0.0968
ATACCTC	-0.0114
GAACTGG	0.0815
CAGGTGT	0.0127
CCTCCAG	0.0793
GACCGGA	0.116

Sequence	uncleaved DNA left (log2)
ACTTCCG	0.0123
TCGAAGT	-0.078
TTTACTT	0.00706
AGTAGCT	-0.0825
TCGCGCA	-0.143
AGCACAG	0.082
ACGACTG	0.0469
AGTTAAG	0.118
CTCTGGT	-0.0683
GTCTCAG	0.162
ATCTGCC	0.023
TGACCTG	-0.0887
CACTTAG	-0.0981
GGTCTCG	0.0727
TGACGGC	-0.0872
CCCGCAC	-0.235
TCTGATC	0.0566
ATTCTAG	0.0706
ACCTAGA	0.00248
ATATACG	0.0497

— the supplement of paper PMC7826260
